Source: PubChem BioAssay AID463173 (ICCB-Longwood Screening Facility, Harvard Medical School, 2010)
The whole screen tested about 52,000 compounds, of which about 4,300 (8.3%) were called active. No stated cut-off is given here; in the data, active means survival mostly below about 52% (no sharp cut-off); inactive means mostly above about 56%. Some of the results follow.

These molecules were tested on DeltatarO mutant (assay: growth inhibition of S. aureus wild type versus tarO mutant, primary screen, teichoic acid synthesis inhibitors, RN4220, OD600 (AID 463173)). Conditions: OD600, 18 h, stronger effect = lower value, screened at 18.75 µg/mL (by protocol).

| Compound | survival |
| --- | --- |
| CCOC(=O)N1CCc2c(sc(NCc3ccc(N(CC)CC)cc3)c2C(=O)Nc2cc(OC)ccc2OC)C1 | inactive: 71% |
| CCOc1ccc(-n2c(SCC(=O)NCc3ccccc3)nc3n[nH]c(C)c3c2=N)cc1 | inactive: 130% |
| O=S(=O)(NCC(c1cccs1)S(=O)(=O)c1ccccc1)c1ccccc1 (stereo not given) | inactive: 115% |
| N#CCCCN1C(=O)C(=C(C#N)C#N)c2ccccc21 | inactive: 75% |
| CCOc1ccccc1NC(=O)c1c2c(nc3ccccc13)C(=O)N(C1CCCCC1)C2 | inactive: 55% |
| CCOc1ccc(C(=O)Nc2ccc3oc(-c4ccc(C)cc4C)nc3c2)cc1Br | inactive: 61% |
| C=CCNC(=O)C1CCN(S(=O)(=O)c2cccc(C(F)(F)F)c2)CC1 | inactive: 65% |
| CCOc1ccc(NC(=O)Cn2c(=O)n(CCCCC(=O)NCCc3ccc(Cl)cc3)c(=O)c3ccccc32)cc1 | inactive: 111% |
| O=C(C1CCC(CNS(=O)(=O)c2ccc(Br)s2)CC1)N1CCN(c2ccc(F)cc2)CC1 (stereo not given) | inactive: 74% |
| CCc1ccccc1NC(=O)CC1NCCNC1=O (stereo not given) | inactive: 78% |
| CNC(=S)N1CCN(c2ccccc2F)CC1 | inactive: 107% |
| CCCCC(=O)N1CCc2cc(OC)c(OC)cc2C1COc1ccc(C(=O)OCC)cc1 (stereo not given) | inactive: 70% |
| Cc1cccc(C(=O)n2nc(C)c(S(=O)(=O)N3CCOCC3)c2C)c1 | inactive: 97% |
| CCOc1ccccc1NS(=O)(=O)c1cc2[nH]c(=O)c(=O)[nH]c2cc1C | inactive: 71% |
| COc1ccc(Cn2ccc3nc(C)c(C(=O)Nc4cc(OC)c(OC)c(OC)c4)cc3c2=O)cc1 | inactive: 99% |
| CCOc1ccc(Sc2cc(C(=O)NCc3ccc(C)cc3)c3ccccc3n2)cc1 | inactive: 99% |
| COCCCn1c(=N)c(C(=O)NC2CCCC2)cc2c(=O)n3cccc(C)c3nc21 | inactive: 139% |
| Cc1cc(C)n(C(C)CC(=O)Nc2ccc(Cl)cc2C)n1 (stereo not given) | inactive: 75% |
| COc1cccc(CN2C(=O)C3(SCC(=O)N3c3ccc(C)c(Cl)c3)c3ccccc32)c1 (stereo not given) | active: 52% |
| CC1Cc2cc(S(=O)(=O)CCC(=O)Nc3ccccc3F)ccc2N1C(=O)C1CC1 (stereo not given) | inactive: 100% |
| CCOc1ccc(NC(=O)CCc2c(C)nc3cc(-c4ccccc4OC)nn3c2C)cc1 | active: 53% |
| COC(=O)c1ccc(CSc2c(C(C)C)cnc3c2c(=O)n(C)c(=O)n3C)cc1 | inactive: 90% |
| Cc1c(NC(=O)Nc2ccc(Cl)c(Cl)c2)sc2nc3n(c(=O)c12)CCC(C)CC3 (stereo not given) | inactive: 93% |

| Compound | survival |
| --- | --- |
| Cc1ccc(N(C)S(=O)(=O)c2ccc3[nH]c(=O)ccc3c2)cc1 | inactive: 87% |
| Cc1ccc(NC(=O)c2sc3ncnc(N(C)C4CCCCC4)c3c2C)c(C)c1 | inactive: 93% |
| O=C(c1ccc(CS(=O)(=O)c2ccc(Br)cc2)o1)N1CCN(c2ccc(F)cc2)CC1 | inactive: 118% |
| Nc1c(C(=O)NCc2cccs2)nnn1CC(=O)Nc1cccc(F)c1 | inactive: 92% |
| COC(=O)c1scc(-c2ccc(C)cc2)c1S(=O)(=O)N1CCN(c2ccc(F)cc2)CC1 | active: -4% |
| CCC1CCCCN1C(=O)c1c[nH]c2ccc(S(=O)(=O)Nc3cccc(OC)c3)cc2c1=O (stereo not given) | inactive: 91% |
| O=C(NCc1ccco1)c1ccc2c(c1)N(Cc1ccccc1)C(=O)c1ccccc1S2 | inactive: 115% |
| O=C(NC1CCCCC1)c1ccc(CSc2nc3cccnc3n2Cc2cccc(F)c2)cc1 | inactive: 83% |
| Cc1cc(C)cc(-n2ccn(CC(=O)c3ccc(F)cc3)c(=O)c2=O)c1 | inactive: 103% |
| O=C(Nc1cccc(Br)c1)N1CCN2CCCCC2C1 (stereo not given) | inactive: 86% |
| CC(=O)Nc1c(C(=O)O)oc2ccc(Cl)cc12 | active: 58% |
| CCCNC(=O)Cn1nc(-c2ccc(OC)cc2)c2cnc3ccc(F)cc3c21 | inactive: 71% |
| COc1ccc(OC)c(CNC(=O)c2cc3c(Cl)nc4ccccc4c3s2)c1 | inactive: 77% |
| Cc1cccc(NC(=O)/C(C#N)=C/c2ccco2)c1 | inactive: 74% |
| CCOc1ccc(-n2c(C)nc3cc(C(=O)NC4CCCC4)ccc32)cc1 | inactive: 76% |
| COc1ccccc1CC(=O)Nc1ccc2nc(Nc3cccc(C(F)(F)F)c3)cc(C)c2c1 | inactive: 92% |
| N#C/C(=C\c1ccc(OCc2ccc(Cl)cc2Cl)cc1)c1nc2ccccc2[nH]1 | inactive: 103% |
| O=C(Nc1nc2n(n1)C(c1ccc(F)cc1)C=C(c1ccc(Cl)cc1)N2)c1ccc([N+](=O)[O-])cc1 (stereo not given) | inactive: 64% |
| Cc1cccc(C2=Nc3ccccc3N=C(c3cc(Cl)ccc3O)C2)c1 | inactive: 52% |
| Cc1oc2c(cc(NS(=O)(=O)c3ccc(C(C)C)cc3)c3ccccc32)c1C(=O)OCc1ccccc1 | inactive: 81% |
| CSc1ccc(CNC(=O)Cn2nc(N3CCN(c4ccccc4)CC3)ccc2=O)cc1 | inactive: 76% |
| Cc1ccccc1CNC(=O)C(=O)NCC(c1ccco1)S(=O)(=O)c1cccs1 (stereo not given) | inactive: 70% |
| COc1cccc(NC(=O)CSc2nnc(-c3cccc(OC)c3)o2)c1 | inactive: 71% |

| Compound | survival |
| --- | --- |
| COc1ccccc1CNS(=O)(=O)Cc1ccccc1 | inactive: 70% |
| CCc1ccc(NC(=O)CC2C(=O)NCCN2C(=O)c2ccc(F)cc2)cc1 (stereo not given) | inactive: 90% |
| CCc1ccc(NC(=O)NCCc2c(C)nn(C)c2C)cc1 | inactive: 72% |
| COc1ccc(S(=O)(=O)c2c(Nc3ccccc3F)sc(C(=O)c3cccc(OC)c3)c2N)cc1 | inactive: 97% |
| COc1ccc(C(=O)Nc2ccccc2C(=O)NCc2ccco2)cc1 | inactive: 58% |
| COc1cccc(C2CC(=O)Nc3c2ccc(C)c3C)c1OC (stereo not given) | inactive: 94% |
| CCOc1ccccc1CNC(=O)c1ccc(CS(=O)Cc2cccc(Cl)c2)o1 (stereo not given) | inactive: 79% |
| CSc1ccc(C2C(C(=O)Nc3ccccc3)=C(C)Nc3nc4ccccc4n32)cc1 (stereo not given) | inactive: 63% |
| Cc1cccc(NC(=O)CSc2nnc(NC(=O)Nc3ccccc3)s2)c1C | inactive: 93% |
| COc1cc(OC)c(NC(=O)N2CCc3c([nH]c4ccccc34)C2c2ccccc2F)cc1Cl (stereo not given) | inactive: 91% |
| O=C(Nc1ccccc1F)c1ccc(Cn2nc(N3CCN(c4ccccc4)CC3)ccc2=O)o1 | inactive: 83% |
| Cc1cc(C)c(NC(=O)CN2C(=O)c3cccnc3Sc3ccccc32)c(C)c1 | inactive: 83% |
| O=C(CCC(=O)N1CC2CCCN2c2ccccc21)NCc1ccc(F)cc1 (stereo not given) | active: 0% |
| O=C(Nc1ccc2nc(SCC(=O)N3CCc4ccccc43)sc2c1)c1ccccc1 | inactive: 79% |
| Cc1ccc2sc(-c3ccc(N)cc3)nc2c1 | active: 12% |
| CCc1ccc(-n2c(=O)c3sc4ccccc4c3n(CC(=O)N(CC)Cc3ccccc3)c2=O)cc1 | inactive: 78% |
| CCCCNC(=O)CSc1nc2nc(C)c(Cc3c(F)cccc3Cl)c(C)n2n1 | active: 31% |
| CCC(=O)N1CCc2cc(CNC(=O)c3ccccc3C)ccc21 | inactive: 91% |
| O=C(NC1CC(=O)N(c2cccc(F)c2)C1)c1ccc2c(c1)OCO2 (stereo not given) | inactive: 78% |
| CCc1ccc(N(CC(=O)N2CCCCC2)S(C)(=O)=O)cc1 | inactive: 105% |
| O=C(C1CCC(Cn2c(=O)c3sccc3n(Cc3ccccc3)c2=O)CC1)N1CCOCC1 (stereo not given) | inactive: 99% |
| Cc1ccc(OCC(=O)Nc2ccccc2C(=O)OCc2cc(=O)n3ccsc3n2)cc1 | inactive: 81% |
| CC(=O)c1ccc(NC(=O)COc2ccccc2-c2nc(-c3ccc(C)cc3)no2)cc1 | inactive: 57% |

| Compound | survival |
| --- | --- |
| Cc1ccc(-c2nnc(Nc3ccccc3O)c3ccccc23)cc1 | active: 49% |
| Cc1ccc(Cl)cc1N1CCN(C(=O)c2cnn(C)c2C2CCN(C(=O)OC(C)(C)C)CC2)CC1 | inactive: 95% |
| CCn1cc(/C=C(\NC(=O)c2ccc(C)cc2)C(=O)NCCCn2ccnc2)c2ccccc21 | inactive: 89% |
| CCOC(=O)c1cc2c(=O)n3ccccc3nc2n(CC2CCCO2)c1=NC(=O)c1ccccc1C (stereo not given) | active: 43% |
| CC(/C=N/NC(=O)c1ccco1)=C\c1ccco1 | inactive: 93% |
| COc1ccc(CNC(=O)C2CCCN(S(=O)(=O)c3ccc4c(ccn4C)c3)C2)c(OC)c1 (stereo not given) | active: 25% |
| Cc1ccc2c(=O)cc(C(=O)NCc3ccccc3)oc2c1 | active: 39% |
| CCOc1ccc2nc(N3CCN(C(=O)c4ccco4)CC3)sc2c1 | inactive: 70% |
| COc1ccc(NC(C)=O)cc1NC(=O)C1(c2cccs2)CCOCC1 | inactive: 76% |
| COc1ccc(C(=O)NCC(c2ccc3c(c2)OCO3)N2CCN(C)CC2)cc1 (stereo not given) | active: 47% |
| O=S(=O)(c1ccc(F)cc1)N(CC(O)Cn1c2ccccc2c2ccccc21)c1ccccc1 (stereo not given) | inactive: 55% |
| CCOc1ccc(CCNC(=O)c2nnc(Cc3ccc(Cl)cc3Cl)o2)cc1OCC | inactive: 83% |
| COc1cc(OC)c(N(C)C(=O)c2c(C)oc3ncnc(N4CCCCC4)c23)cc1Cl | inactive: 72% |
| O=C(c1ccco1)N1CCCN(C(=O)c2ccco2)CC1 | inactive: 67% |
| Cc1oc(-c2ccccc2F)nc1CS(=O)CC(=O)NC(C)C (stereo not given) | inactive: 89% |
| COc1ccc(OC)c(NC(=O)c2cccc3c2C(=O)N(C2CCCCC2)C3)c1 | inactive: 69% |
| N#Cc1c(NC(=O)c2cccs2)sc2c1CCCCC2 | inactive: 87% |
| Cc1cccc(Cn2c(CNS(=O)(=O)c3ccc(C(C)C)cc3)nc3cccnc32)c1 | inactive: 75% |
| CCc1ccc(-n2nc(CO)c(C(=O)NCCc3ccccc3)n2)cc1 | inactive: 51% |
| O=C(CSc1nc2c([nH]c3ccccc32)c(=O)n1-c1ccc(F)cc1)N1CCc2ccccc21 | inactive: 95% |
| Cc1ccc(C)c(N2CCN(C(=O)Cc3c(C(=O)O)c(C)cn3C)CC2)c1 | inactive: 101% |
